Measurements published in the supplement of paper PMC4996465.
Viability of KB3-1 and Nalm-6 cells after 48 h of drug alone (CellTiter-Glo), 11 doses over about 4.5 log units. % of DMSO wells, lower = more cell loss; AC50 from the fitted curve, lower = more potent. No active / inactive call. Nalm-6 was screened in two runs. AC50 is listed only for well-fitted inhibitory curves. KB3-1 is a HeLa-derived carcinoma line, Nalm-6 a B-cell precursor leukaemia line.

Columns and labels:
KB3-1 = assay: viability (% of DMSO control); higher = more viable cells
Experimental: (§1)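 Eleven-dose screen of the NCATS MIPE 3 library on cells without co-treatment; CellTiter-Glo after 48 h, as % of DMSO wells.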

Nalm-6 [1] = assay: as above
Experimental: as §1

Nalm-6 [2] = assay: log AC50 of viability decrease (48 h) (log10 M); higher = less potent
Experimental: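 Eleven-dose screen of the NCATS MIPE 3 library on cells without co-treatment; CellTiter-Glo after 48 h. AC50 from the curve fit; only inhibitory curves of the better fit classes are listed.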

Row | Compound | viability (KB3-1; 0.00078 µM) [%] | viability (KB3-1; 0.00234 µM) [%] | viability (KB3-1; 0.00702 µM) [%] | viability (KB3-1; 0.0211 µM) [%] | viability (KB3-1; 0.0632 µM) [%] | viability (KB3-1; 0.19 µM) [%] | viability (KB3-1; 0.569 µM) [%] | viability (KB3-1; 1.71 µM) [%] | viability (KB3-1; 5.12 µM) [%] | viability (KB3-1; 15.4 µM) [%] | viability (KB3-1; 46.1 µM) [%] | viability (Nalm-6 [1]; run: 1, 0.00078 µM) [%] | viability (Nalm-6 [1]; run: 1, 0.00234 µM) [%] | viability (Nalm-6 [1]; run: 1, 0.00702 µM) [%] | viability (Nalm-6 [1]; run: 1, 0.0211 µM) [%] | viability (Nalm-6 [1]; run: 1, 0.0632 µM) [%] | viability (Nalm-6 [1]; run: 1, 0.19 µM) [%] | viability (Nalm-6 [1]; run: 1, 0.569 µM) [%] | viability (Nalm-6 [1]; run: 1, 1.71 µM) [%] | viability (Nalm-6 [1]; run: 1, 5.12 µM) [%] | viability (Nalm-6 [1]; run: 1, 15.4 µM) [%] | viability (Nalm-6 [1]; run: 1, 46.1 µM) [%] | viability (Nalm-6 [1]; run: 2, 0.00078 µM) [%] | viability (Nalm-6 [1]; run: 2, 0.00234 µM) [%] | viability (Nalm-6 [1]; run: 2, 0.00702 µM) [%] | viability (Nalm-6 [1]; run: 2, 0.0211 µM) [%] | viability (Nalm-6 [1]; run: 2, 0.0632 µM) [%] | viability (Nalm-6 [1]; run: 2, 0.19 µM) [%] | viability (Nalm-6 [1]; run: 2, 0.569 µM) [%] | viability (Nalm-6 [1]; run: 2, 1.71 µM) [%] | viability (Nalm-6 [1]; run: 2, 5.12 µM) [%] | viability (Nalm-6 [1]; run: 2, 15.4 µM) [%] | viability (Nalm-6 [1]; run: 2, 46.1 µM) [%] | log AC50 of viability decrease (Nalm-6 [2]; run: 1) | log AC50 of viability decrease (Nalm-6 [2]; run: 2)
1 | CNCc1ccc(-c2[nH]c3cc(F)cc4c3c2CCNC4=O)cc1 [Rucaparib] | 102 | 105 | 105 | 108 | 106 | 108 | 110 | 106 | 118 | 115 | 38.8 | 96.9 | 99.6 | 103 | 109 | 116 | 110 | 111 | 96.5 | 76.2 | 66.2 | 16.1 | 111 | 103 | 104 | 109 | 107 | 107 | 111 | 103 | 95.4 | 85.8 | 31.2 | -4.78 | -4.68
2 | COC1(C[S+]([O-])c2ccccc2)CCN(CCc2c[nH]c3ccc(F)cc23)CC1 (configuration not stated) | 100 | 96.2 | 94.6 | 95.8 | 94.8 | 92.4 | 91.9 | 89.5 | 89.2 | 90.5 | 82.8 | 103 | 99.1 | 108 | 111 | 106 | 113 | 97.9 | 104 | 96.2 | 90.6 | 73.9 | 111 | 111 | 104 | 113 | 111 | 103 | 99.8 | 105 | 104 | 95.8 | 80.6 | -4.78 | –
3 | CCCS(=O)(=O)Nc1ccc(F)c(C(=O)c2c[nH]c3ncc(-c4ccc(Cl)cc4)cc23)c1F [Vemurafenib] | 99.6 | 102 | 103 | 99.5 | 103 | 107 | 98.8 | 104 | 98.7 | 92.7 | 52.6 | 123 | 118 | 113 | 122 | 122 | 122 | 113 | 106 | 105 | 95.2 | 2.78 | 107 | 104 | 106 | 112 | 104 | 103 | 102 | 101 | 104 | 85.2 | 3.35 | -4.63 | -4.63
4 | O=S(=O)(/N=C/c1c(O)ccc2ccccc12)c1cccs1 | 103 | 105 | 105 | 111 | 103 | 106 | 100 | 108 | 104 | 104 | 92.6 | 117 | 113 | 117 | 115 | 112 | 108 | 116 | 101 | 104 | 105 | 49 | 103 | 104 | 105 | 103 | 103 | 103 | 101 | 97.8 | 101 | 68.5 | 35.6 | – | -4.78
5 | CCOC(=O)N[C@@H]1CC[C@@H]2[C@@H](C1)C[C@H]1C(=O)O[C@H](C)[C@H]1[C@H]2/C=C/c1ccc(-c2cccc(F)c2)cn1 [Vorapaxar] | 105 | 104 | 102 | 99.4 | 102 | 104 | 100 | 103 | 100 | 95.4 | 75.8 | 116 | 117 | 119 | 121 | 119 | 120 | 125 | 117 | 108 | 87.8 | 47.6 | 106 | 108 | 111 | 113 | 109 | 111 | 103 | 106 | 107 | 103 | 61.3 | -4.78 | –
6 | CC(C)c1onc(-c2c(Cl)cccc2Cl)c1COc1ccc(/C=C/c2cccc(C(=O)O)c2)c(Cl)c1 [GW-4064X] | 99.7 | 108 | 106 | 111 | 108 | 107 | 110 | 102 | 103 | 97.9 | 73.3 | 133 | 127 | 131 | 129 | 134 | 128 | 136 | 128 | 127 | 114 | 55.9 | 104 | 111 | 102 | 113 | 107 | 107 | 103 | 107 | 14.8 | 1.17 | 10.7 | -4.68 | -5.48
7 | CC(C)(C)C1=CC(=C(NC(=O)C/2=C/NC3=C(C=CC=C3)C2=O)C=C1O)C(C)(C)C [Ivacaftor] | 102 | 101 | 102 | 102 | 102 | 101 | 103 | 102 | 97.1 | 94 | 4.06 | 96.3 | 100 | 109 | 101 | 106 | 100 | 102 | 96.3 | 104 | 84.2 | 4.54 | 98.8 | 95.3 | 98.6 | 98.5 | 99.1 | 94.2 | 94.6 | 91 | 96.2 | 51.6 | 4.09 | -4.63 | -4.78
8 | FC1=CC=C(SC/2=N/N3\C=N/C(=O)/C(=C3/C=C2)C4=C(Cl)C=CC=C4Cl)C(=C1)F [VX-745] | 98.1 | 97.9 | 95.8 | 103 | 103 | 94.2 | 101 | 92.7 | 92 | 92.6 | 68.3 | 111 | 117 | 110 | 108 | 113 | 107 | 104 | 95.1 | 86.5 | 82.2 | 56.2 | 106 | 107 | 107 | 106 | 105 | 99.3 | 95.4 | 104 | 90.1 | 94.5 | 65.7 | -4.83 | –
9 | O=C(Oc1ccc([N+](=O)[O-])cc1)N1CCC(C(O)(c2ccc3c(c2)OCO3)c2ccc3c(c2)OCO3)CC1 [JZL-184] | 114 | 105 | 97.5 | 105 | 105 | 107 | 106 | 105 | 103 | 106 | 102 | 128 | 124 | 109 | 128 | 119 | 128 | 119 | 114 | 111 | 102 | 85.3 | 102 | 109 | 110 | 105 | 107 | 106 | 87.4 | 53.7 | 61.3 | 27.7 | 5.22 | -4.73 | -5.28
10 | CCOC(=O)[C@@H](N)CCC(=O)N[C@@H](CSCc1ccccc1)C(=O)N[C@@H](C(=O)OCC)c1ccccc1 [Ezatiostat] | 101 | 103 | 106 | 106 | 110 | 109 | 115 | 107 | 110 | 107 | 101 | 121 | 118 | 127 | 116 | 126 | 121 | 121 | 122 | 115 | 84 | 8.9 | 103 | 105 | 112 | 105 | 108 | 112 | 112 | 109 | 101 | 93.1 | 4.91 | -4.73 | -4.63
11 | CCCCOCCOc1nc(-c2ccc(C(=O)O)c(F)c2)sc1C | 95.4 | 97.5 | 97.5 | 97.3 | 97.3 | 96.4 | 95.8 | 98.5 | 96.9 | 91.9 | 61.4 | 94.4 | 106 | 102 | 81.9 | 65.6 | 37.7 | 5.48 | -0.623 | -1.27 | -1.29 | -1.33 | 75.5 | 101 | 105 | 102 | 108 | 109 | 102 | 109 | 109 | 108 | 89.8 | -6.93 | –
12 | O=C(O)Cc1cccc(OCCCN(Cc2cccc(C(F)(F)F)c2Cl)CC(c2ccccc2)c2ccccc2)c1 [GSK-3965] | 97.1 | 102 | 96.9 | 97.6 | 100 | 104 | 102 | 98.5 | 102 | 96.2 | 44.6 | 93.1 | 98.1 | 89.6 | 66.2 | 25.2 | -0.454 | -1.65 | -1.97 | -2.07 | -2.06 | -2.21 | 78.7 | 94.5 | 89.9 | 94.5 | 104 | 93.4 | 95.4 | 102 | 103 | 96.2 | 1.31 | -7.48 | –
13 | CN1CC(=O)N=C1NC(=O)Nc1cccc(Cl)c1 [Fenobam] | 100 | 102 | 103 | 103 | 99.4 | 99.2 | 98.8 | 96.7 | 95.5 | 97 | 87.5 | 111 | 108 | 107 | 105 | 99.8 | 95.6 | 89.5 | 77.2 | 65.7 | 76.7 | 67.8 | 105 | 104 | 102 | 103 | 101 | 104 | 107 | 110 | 106 | 109 | 99.9 | -6.38 | –
14 | CC[C@@H]1C(=O)N(C)c2cnc(Nc3ccc(C(=O)NC4CCC(N5CCN(CC6CC6)CC5)CC4)cc3OC)nc2N1C(C)C (some centres not stated) [Volasertib] | 84.7 | 52.8 | 25.8 | 26 | 31.1 | 27.4 | 34.7 | 48.4 | 56.7 | 49.6 | 4.7 | 97.1 | 89.6 | 81.5 | 19.7 | 16.7 | 16.4 | 17.4 | 13.1 | 9.13 | 4.69 | 4.98 | 106 | 100 | 88.5 | 25.4 | 13 | 12.9 | 13.4 | 6.53 | 4.28 | 3.67 | 3.17 | -7.93 | -7.88
15 | Cc1cccc(C#Cc2ccccc2)n1 [MPEP] | 102 | 106 | 103 | 97.4 | 100 | 94.4 | 92.2 | 102 | 95.9 | 93.4 | 85.5 | 95.8 | 107 | 102 | 107 | 102 | 85.3 | 69.5 | 63.1 | 62 | 61.5 | 53.4 | 101 | 100 | 106 | 106 | 109 | 103 | 104 | 104 | 103 | 105 | 97.3 | -6.58 | –
